In PubChem BioAssay AID1159614 (National Center for Advancing Translational Sciences (NCATS), 2016):
Out of some 45,000 compounds screened, about 65 (0.1%) were called active. Calls follow the shape of the dose curve; as a rule, active = well fitted activation curve with a large enough effect; inconclusive = small, poorly fitted or top-dose-only effect; inactive = no such curve, though single readings can be large or run the other way. This is one part of the list.

What follows are molecules tested against Galactocerebrosidase (Homo sapiens) (UniProt P54803) (assay: A Novel Cell-Based Assay to Identify Small Molecules for B -Galactocerebrosidase). Settings: 145M-Twi-hGALC-G270D cells (Twitcher mouse brain line with human GALC G270D), HMU-beta-Gal fluorescence, 48 h; series mostly up to 57.5 µM; activation: at the top concentration.
Chain of UniProt P54803 (P54803 whole entry, looked up): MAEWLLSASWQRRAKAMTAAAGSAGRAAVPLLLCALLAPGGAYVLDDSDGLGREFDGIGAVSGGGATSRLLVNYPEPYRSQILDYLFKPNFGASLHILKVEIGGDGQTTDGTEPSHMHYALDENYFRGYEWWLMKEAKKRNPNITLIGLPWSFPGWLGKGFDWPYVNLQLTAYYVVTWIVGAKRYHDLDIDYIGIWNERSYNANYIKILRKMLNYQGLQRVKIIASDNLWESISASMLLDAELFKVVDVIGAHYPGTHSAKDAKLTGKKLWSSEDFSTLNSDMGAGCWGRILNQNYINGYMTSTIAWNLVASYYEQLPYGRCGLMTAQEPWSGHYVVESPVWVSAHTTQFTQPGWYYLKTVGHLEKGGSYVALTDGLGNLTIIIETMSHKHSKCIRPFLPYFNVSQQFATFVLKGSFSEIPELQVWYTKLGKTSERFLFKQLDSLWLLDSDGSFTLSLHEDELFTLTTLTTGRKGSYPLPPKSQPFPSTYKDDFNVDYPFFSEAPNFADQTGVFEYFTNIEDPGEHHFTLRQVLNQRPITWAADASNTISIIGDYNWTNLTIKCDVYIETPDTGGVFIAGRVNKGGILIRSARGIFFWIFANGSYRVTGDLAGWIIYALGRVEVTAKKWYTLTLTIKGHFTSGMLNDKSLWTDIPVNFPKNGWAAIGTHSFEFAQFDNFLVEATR
In short: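 Fluorogenic HMU-b-Gal hydrolysis (0.1 mM final, pH 5.2 citrate-phosphate with 1 mg/mL sodium taurocholate; carbonate stop buffer) measures mutant GALC activity after compound treatment of live 145M-Twi Twitcher brain cells stably carrying human GALC-G270D, with wild-type GALC line alongside; activation sought.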
Also: 0% is about no effect; nearly all actives have a fitted effect of over 65% in size.

| Compound | activation |
| --- | --- |
| O=C(CSc1ccc(-c2cccs2)nn1)Nc1cccc(F)c1 | inactive: -41.9% |
| CCN1CCN(CCCNC(=O)c2ccc3c(c2)sc2nc(-c4ccc(C)cc4)cn23)CC1 | inactive: -5.36% |
| COc1ccc(-c2cc(C)no2)cc1S(=O)(=O)N1CC(C)Oc2ccccc21 (stereo not drawn) | inactive: -15.1% |
| COc1ccccc1N1CCN(c2ncnc3onc(C)c23)CC1 | inactive: -14.9% |
| COc1ccc(-n2nc(C(=O)N3CCN(c4cccc(C(F)(F)F)c4)CC3)c3c4ccccc4n(C)c3c2=O)cc1Cl | inactive: -16.7% |
| CCOc1ccc(CCNC(=O)Cc2ccc(NC(=O)N3CCSc4ncccc43)cc2)cc1 | inactive: -18.7% |
| CCCNC(C)C(=O)Nc1c(C)csc1C(=O)OC (stereo not drawn) | inactive: -10.5% |
| COc1cccc(CN2CCc3nc(N4CCN(C)CC4)ncc3C2)c1 | inactive: -5.92% |
| COc1cc(OC)cc(C(=O)Nc2nc(-c3nnn(-c4ccc(F)c(Cl)c4)c3C)ns2)c1 | inactive: -14.8% |
| Cc1cccc(-c2noc(-c3cc(-c4ccc(F)cc4)n[nH]3)n2)c1 | inactive: -18.6% |
| COc1cccc(N2CCN(C(=O)Cn3ncc4c5ccccc5n(C)c4c3=O)CC2)c1 | inactive: -2.12% |
| Cc1oc2ncn(C)c(=O)c2c1C(=O)NCc1ccccc1 | inactive: -11.4% |
| COc1ccc(NC(=O)CSc2nc(C)cc(C)c2C(=O)Nc2cccc(C)c2)cc1 | inactive: -8.36% |
| COc1ccc2cc3cc(C(=O)Nc4ccccc4C)oc3nc2c1 | inactive: -11.5% |
| COc1cccc(C(=O)Nc2ccccc2-c2nnc(-c3ccc(C(C)(C)C)cc3)o2)c1 | inactive: 3.9% |
| O=C(c1ccccc1Cl)N1CCN(CCc2ccccn2)CC1 | inactive: -1.18% |
| CCN1CCN(C(=O)c2ccc3c(c2)N(Cc2ccccc2F)C(=O)c2ccccc2S3(=O)=O)CC1 | inactive: 1.04% |
| Cc1ccccc1NC(=O)c1ccc(F)c(S(=O)(=O)NC2CCCC2)c1 | inactive: -5.77% |
| Cc1ccc(NC(=O)Nc2ccc3nc(N4CCN(C)CC4)cc(C)c3c2)cc1C | inactive: -1.78% |
| CCOc1ccc(-c2cc(CCCC(=O)NCCc3ccc(OCC)c(OCC)c3)no2)cc1 | inactive: 2.05% |
| C[C@@H](NC(=O)CN(c1ccccc1)S(=O)(=O)N(C)C)c1ccccc1 | inactive: -21.8% |
| CCCOC(=O)c1ccc(Nc2nc3ccccc3nc2-n2nc(C)cc2C)cc1 | inactive: -13% |
| COc1cccc(N(C)C(=S)Oc2ccc3c(c2)CCCC3)n1 | inactive: -10.1% |
| Cc1ccc(N2CCN(C(=O)c3c(C)oc4nc(C)nc(N5CCCC5)c34)CC2)c(C)c1 | inactive: -5.83% |
| COc1ccc(NC(=O)c2sc3nc4c(cc3c2N)CCCCCC4)cc1Cl | inactive: -10.4% |

| Compound | activation |
| --- | --- |
| CCOC(=O)c1cccc(NC(=O)N2CC(CC)Oc3ccccc32)c1 (stereo not drawn) | inactive: 0.641% |
| COc1cc(NS(=O)(=O)c2ccc(NC(=O)c3ccc(C(C)=O)cc3)cc2)nc(OC)n1 | inactive: -2.06% |
| CCc1nn(CC(=O)NCCN(CC)CC)c(=O)c2cc3occc3n12 | inactive: 3.12% |
| O=C(CSc1ncc2c(n1)-c1ccccc1N(Cc1ccc(F)cc1)S2(=O)=O)NCc1ccccc1 | inactive: 1.16% |
| Cc1nc2cccnc2n1C1CCN(S(=O)(=O)c2ccc(C(C)C)cc2)CC1 | inactive: -34.7% |
| CCn1c(=O)c2cc(C(=O)N(C)c3cc(Cl)c(OC)cc3OC)sc2c2ccccc21 | inactive: -18.7% |
| Cc1cccc(CNC(=O)CCCN2C(=O)COc3ccc(C)cc32)c1 | inactive: 2.41% |
| Cc1cccc(-n2ncc(C(=O)NCc3ccco3)c2C2CCN(C(=O)OC(C)(C)C)CC2)c1 | inactive: -16.4% |
| CC(=O)c1cccc(Nc2ncnc3c2cnn3-c2cccc(Cl)c2)c1 | inactive: -5.33% |
| COc1cccc(NC(=O)CC2Oc3ccccc3NC2=O)c1 (stereo not drawn) | inactive: -9.74% |
| C=Cc1ccc(Cn2c(C(=O)OC)cc3sc(C)cc32)cc1 | inactive: -7.18% |
| CC(C)OCCCNC(=O)CN1C(=O)CSc2ccc(S(=O)(=O)N3CCOCC3)cc21 | inactive: -21.8% |
| COc1cccc(NC(=O)c2oc3ccc(S(=O)(=O)N4CCOCC4)cc3c2C)c1 | inactive: -6.98% |
| CC1CCCCN1S(=O)(=O)c1ccc2[nH]c(=O)cc(C(=O)NCCc3ccc(Cl)cc3)c2c1 (stereo not drawn) | inactive: 5.14% |
| COC(=O)c1c(NC(=O)c2c(OC)cccc2OC)sc2c1CCCC2 | inactive: -11.5% |
| CCc1ccc(Nc2nc3c(S(=O)(=O)c4cccc(Cl)c4)nnn3c3ccsc23)cc1 | inactive: -17.5% |
| CC(=O)Nc1c(C(=O)Nc2ccccc2F)oc2ccccc12 | inactive: 2.12% |
| COc1ccc(-n2cc(C(=O)Nc3ccccc3C#N)c3ccccc3c2=O)cc1 | inactive: -8.54% |
| CNc1nc(Oc2ccc(=O)[nH]n2)nc(N2CCOCC2)n1 | inactive: -17.8% |
| Cc1ccccc1CNC(=O)Cn1cc2c(n1)-c1c(oc(C(=O)N3CCCC3)c1C)CC2 | inactive: 5.47% |
| COc1ccccc1NC(=O)C1=C(C)Nc2ncnn2C1c1sccc1C (stereo not drawn) | inactive: -24.5% |
| COc1ccc(N2CC(NC(=O)C3CCCC3)CC2=O)cc1 (stereo not drawn) | inactive: -9.08% |
| COc1ccc2nc(NC(=O)c3nc(SCc4cccc(C)c4)ncc3Cl)sc2c1 | inactive: -5.82% |
| COc1ccc(OC)c(CNC(=O)CCC(=O)N2Cc3ccccc3Oc3ncccc32)c1 | inactive: -5.8% |
| CCOc1ccccc1NC(=O)c1nn(-c2ccc(OC)cc2)c(=O)c2c1c1ccccc1n2C | inactive: -6.35% |

| Compound | activation |
| --- | --- |
| O=C(c1cccc([N+](=O)[O-])c1)N1CCN(CCc2ccncc2)CC1 | inactive: 5.24% |
| Cc1ccc(NC(=O)CN2C(=O)COc3ccc(S(=O)(=O)N4CCOCC4)cc32)c(Cl)c1 | inactive: -7.11% |
| CCOc1ccc(NC(=O)Cn2c(=O)n(Cc3ccccc3)c(=O)c3c4c(sc32)CN(C(C)=O)CC4)cc1 | inactive: -16.6% |
| CC(C)(C)c1ccc(S(=O)(=O)N2CCC(c3ccncc3)CC2)cc1 | inactive: -4.25% |
| Cc1nc(SCCOc2ccc(Cl)cc2)[nH]c(=O)c1Cc1ccccc1 | inactive: 3.39% |
| COc1cccc(-n2cc(C(=O)Nc3ccccc3C(N)=O)c3ccccc3c2=O)c1 | inactive: -14.1% |
| CC(=O)c1c(C)oc2ccc(N(C(=O)c3ccncc3)S(=O)(=O)c3ccc(F)cc3C)cc12 | inactive: -22.1% |
| COc1ccc(N(CC(=O)N2CCN(c3ccc(F)cc3)CC2)S(=O)(=O)c2c(C)nn(C)c2C)cc1 | inactive: -12.5% |
| Cc1cc(C)cc(NC(=O)CN(C)S(=O)(=O)c2ccc3c(c2)CCC(=O)N3)c1 | inactive: -23% |
| Cc1cccc(C(=O)Nc2sc3c(c2C(=O)O)CCCC3)c1 | inactive: -6.75% |
| CCCOc1ccc(C2C(=O)N(C3CCCCC3)CC(=O)N2CCC2=CCCCC2)cc1OC (stereo not drawn) | inactive: -11.9% |
| Cc1ccc(CNC(=O)c2cnn(-c3ccc(F)cc3F)c2C2CCN(C(=O)OC(C)(C)C)CC2)cc1 | inactive: -8.71% |
| CCOC(=O)C(CC)Sc1nnc2[nH]c(=O)cc(C)n12 (stereo not drawn) | inactive: -27.5% |
| COc1cccc(CNC(=O)CC(c2ccc(C)cc2)N2Cc3ccccc3C2=O)c1 (stereo not drawn) | inactive: -1.49% |
| COc1ccc(NS(=O)(=O)c2ccc3c(c2)n(C)c(=O)c(=O)n3C)cc1Cl | inactive: -21.1% |
| COc1cccc(CNC(=O)c2cccc(NC(=O)c3nsc4ccccc34)c2)c1 | inactive: -9.49% |
| COc1cc(Cl)c(NC(=O)CN(C)S(=O)(=O)c2ccc3[nH]c4c(c3c2)CCCC4)c(OC)c1 | inactive: -16.3% |
| Cc1ccccc1NC(=O)CSc1nnc(-c2cccc(Cl)c2)o1 | inactive: -3.53% |
| CCOC(=O)c1cc2c(=O)n3ccccc3nc2n(CC2CCCO2)c1=NC(=O)c1ccccc1F (stereo not drawn) | inactive: -7.91% |
| COc1ccc(CNC(=O)C(C)n2nc(C)c3sc4ccccc4c3c2=O)cc1OC (stereo not drawn) | inactive: -7.63% |
| CCc1ccc(Cn2c(CNS(=O)(=O)c3ccc(Cl)s3)nc3cccnc32)cc1 | inactive: 0.542% |
| COc1ccccc1-c1ccnc2c(-c3ccc(Br)cc3)c(C)nn12 | inactive: -8.39% |
| COc1cc(-c2nc3cnccn3c2Nc2ccc(C(C)C)cc2)ccc1O | inactive: -25.1% |
| O=C(CSc1n[nH]c(-c2ccccc2)n1)NCCc1ccccc1 | inactive: -3.96% |
| COc1cccc(CNC(=O)CCS(=O)(=O)c2cc3c4c(c2)CCN4C(=O)CC3)c1 | inactive: -14.2% |

| Compound | activation |
| --- | --- |
| Cc1csc2nc(-c3cccc(NC(=O)c4ccccc4F)c3)cn12 | inactive: -0.299% |
| Cc1nn2c(=O)cc(COC(=O)c3ccc(NC(=O)c4ccc(C(C)(C)C)cc4)cc3)nc2s1 | inactive: -1.36% |
| Cc1noc2ncnc(N3CCCC(C(=O)NCCC(C)C)C3)c12 (stereo not drawn) | inactive: -9.85% |
| COc1ccc(S(=O)(=O)N2CCC(c3nnc(-c4ccccc4C)o3)CC2)c(OC)c1 | inactive: -18.4% |
| Cc1nn2c(=O)cc(COC(=O)c3ccccc3NC(=O)C(C)C)nc2s1 | inactive: -7.48% |
| COc1cccc(-n2cc(C(=O)Oc3ccc(F)cc3)c3ccccc3c2=O)c1 | inactive: -10.4% |
| COc1cc(C(=O)Nc2cccc(OCc3cc(=O)n4c(C)csc4n3)c2)cc(OC)c1OC | inactive: -4.94% |
| Cc1ccc(S(=O)(=O)c2c(Nc3ccccc3)sc(C(=O)c3ccc4c(c3)OCO4)c2N)cc1 | inactive: -12.8% |
| O=C(NCc1ccc2c(c1)CCN2C(=O)c1ccncc1)c1ccccc1Br | inactive: -23.5% |
| CCCNC(=O)CCn1nc(-c2ccc(C)cc2)c2ccccc2c1=O | inactive: -1.4% |
| Nc1nc(N)c(-c2ccccc2)s1 | inactive: -14.1% |
| COc1ccc(-c2nc(SCC(=O)NCC3CCCO3)c(-c3ccc(Cl)cc3)[nH]2)cc1 (stereo not drawn) | inactive: -12.8% |
| Cc1c(Cl)ccc2sc(NC(=O)c3ccc(S(=O)(=O)N4CCCC4)cc3)nc12 | inactive: -5.84% |
| COc1ccc(OC)c(NC(=O)Cn2ccn(-c3ccc(F)cc3)c(=O)c2=O)c1 | inactive: -10.3% |
| Cc1ccc2ncc(C(=O)Nc3cccc(C(F)(F)F)c3)c(=O)n2c1 | inactive: -24.7% |
| CCCC12CN3CC(C)(CN(C1)C3c1ccc(CC)cc1)C2=O (stereo not drawn) | inactive: -25.4% |
| CCOC(=O)c1ccc2ncc(C(=O)OCC)c(NCCc3ccc(OC)c(OC)c3)c2c1 | inactive: 3.52% |
| CCc1ccc(OCC(=O)NCC(c2ccc(Cl)cc2)N2CCOCC2)cc1 (stereo not drawn) | inactive: -13.5% |
| COc1ccccc1NC(=O)c1sc2cccc(Cl)c2c1Cl | inactive: -9.17% |
| CCOc1ccc(CCNC(=O)c2cc3c(=O)n(C)c4ccccc4c3s2)cc1OCC | inactive: -3.95% |
| CC(C)c1ccc(NC(=O)c2cc3c(=O)oc4ccccc4c3s2)cc1 | inactive: -3.59% |
| CC(C)Oc1ccc(CNC(=O)C2CCN(C(=O)N3CCOc4ccc(Cl)cc43)CC2)cc1 | inactive: -14.8% |
| Cc1ccccc1-c1nc(NC(=O)CSc2ncnc3sc4c(c23)CCCC4)ns1 | inactive: -8.33% |
